In US20230014151A1, “COMBINATION ANTIVIRAL THERAPY FOR MEASLES” (The Trustees of Columbia University in the City of New York, priority 2019, published 2023):
Like-named read-outs stand apart in the source and are kept apart here. For at least one compound, name, drawing or mass did not settle the structure. Square brackets hold non-standard residues; d marks the D form. Peptide text beside a SMILES is read from it. * marks the point of attachment. X4 = CC(C)CCC[C@@H](C)[C@H]1CC[C@H]2[C@@H]3CC=C4C[C@@H](OC(=O)CCOCCOCCOCCOCCNC(=O)C*)CC[C@]4(C)[C@H]3CC[C@]12C; Succinimide(1-Et,3-yl) = CCN1C(=O)CC(*)C1=O; Cbz = O=C(OCc1ccccc1)*

Tests used:
[1] = target: viral glycoproteins (H and F); CD150; test: beta-galactosidase complementation-based fusion assay, CD150 target cells; details: read-out: CD150 IC50; Table 3 (extended version)
Chain of viral glycoproteins (H and F); CD150 (Q786F3 24-112): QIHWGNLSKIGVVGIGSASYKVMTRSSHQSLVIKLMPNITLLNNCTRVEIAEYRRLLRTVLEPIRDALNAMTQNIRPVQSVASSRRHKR
Chain of viral glycoproteins (H and F); CD150 (Q786F3 113-550): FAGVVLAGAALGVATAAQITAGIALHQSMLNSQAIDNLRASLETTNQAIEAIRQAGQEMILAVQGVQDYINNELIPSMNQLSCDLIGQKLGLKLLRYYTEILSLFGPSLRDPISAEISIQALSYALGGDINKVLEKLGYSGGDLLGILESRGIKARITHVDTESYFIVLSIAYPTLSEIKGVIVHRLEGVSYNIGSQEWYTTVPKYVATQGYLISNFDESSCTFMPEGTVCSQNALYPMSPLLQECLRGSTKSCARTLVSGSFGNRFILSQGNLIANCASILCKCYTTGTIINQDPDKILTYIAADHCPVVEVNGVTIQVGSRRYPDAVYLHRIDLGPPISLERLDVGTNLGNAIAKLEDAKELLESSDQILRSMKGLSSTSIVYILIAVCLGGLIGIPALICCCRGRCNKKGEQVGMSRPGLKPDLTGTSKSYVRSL

[2] = target: viral glycoproteins (H and F); Nectin-4 (Measles virus, UniProt Q786F3); test: beta-galactosidase complementation-based fusion assay, Nectin-4 target cells
Chain of viral glycoproteins (H and F); Nectin-4 (Q786F3 24-112): as the sequence (Q786F3 24-112) above

[3] = read-out: Nectin4 IC50, Table 3 (extended version)
[4] = Table 2 (salient peptides), Nectin-4 target cells

| Structure (SMILES) | IC50 [1] [nM] | IC50 [2, 3] [nM] | IC50 [2, 4] [nM] |
| --- | --- | --- | --- |
| CC(C)CCC[C@@H](C)[C@H]1CC[C@H]2[C@@H]3CC=C4C[C@@H](OC(=O)CCOCCOCCOCCOCCNC(=O)CSC[C@H](NC(=O)CNC(=O)[C@H](Cc5ccccc5)NC(=O)[C@@H](Cc5ccccc5)NC(=O)OCc5ccccc5)C(=O)O)CC[C@]4(C)[C@H]3CC[C@]12C [FIP-peg4-chol (no GSGSG)] | > 400 | > 700 | – |
| CC(C)CCC[C@@H](C)[C@H]1CC[C@H]2[C@@H]3CC=C4C[C@@H](OC(=O)CCOCCOCCOCCOCCNC(=O)CSC[C@H](NC(=O)CNC(=O)[C@H](CO)NC(=O)CNC(=O)[C@H](CO)NC(=O)CNC(=O)CNC(=O)[C@H](Cc5ccccc5)NC(=O)[C@@H](Cc5ccccc5)NC(=O)OCc5ccccc5)C(=O)O)CC[C@]4(C)[C@H]3CC[C@]12C [FIP-peg4-chol] (Cbz-[dF]FGGSGSGC(X4)-OH) | – | 4000 ± 1080 | 4000 ± 1080 |
| CC[C@H](C)[C@H](NC(=O)[C@H](C)NC(=O)[C@H](CC(N)=O)NC(=O)CNC(=O)[C@H](CC(C)C)NC(=O)[C@H](CC(N)=O)NC(=O)[C@@H](NC(=O)CNC(=O)[C@@H](NC(=O)[C@H](CC(=O)O)NC(=O)[C@H](CC(C)C)NC(=O)[C@H](CCCNC(=N)N)NC(=O)[C@H](CCC(=O)O)NC(=O)[C@H](CC(C)C)NC(=O)[C@H](CO)NC(=O)[C@@H](NC(=O)[C@@H]1CCCN1C(=O)[C@@H]1CCCN1C(C)=O)[C@@H](C)CC)C(C)C)[C@@H](C)O)C(=O)N[C@@H](C)C(=O)N[C@@H](CCCCN)C(=O)N[C@@H](CC(C)C)C(=O)N[C@@H](CCC(=O)O)C(=O)N[C@@H](CC(=O)O)C(=O)N[C@@H](C)C(=O)N[C@@H](CCCCN)C(=O)N[C@@H](CCC(=O)O)C(=O)N[C@@H](CC(C)C)C(=O)N[C@@H](CC(C)C)C(=O)N[C@@H](CCC(=O)O)C(=O)N[C@@H](CO)C(=O)N[C@@H](CO)C(=O)N[C@@H](CC(=O)O)C(=O)N[C@@H](CCC(N)=O)C(=O)N[C@H](C(=O)N[C@@H](CC(C)C)C(=O)N[C@@H](CCCNC(=N)N)C(=O)NCC(=O)N[C@@H](CO)C(=O)NCC(=O)N[C@@H](CO)C(=O)NCC(=O)N[C@@H](CSCC(=O)NCCOCCOCCOCCOCCC(=O)O[C@H]1CC[C@@]2(C)C(=CC[C@H]3[C@@H]4CC[C@H]([C@H](C)CCCC(C)C)[C@@]4(C)CC[C@@H]32)C1)C(=O)O)[C@@H](C)CC [HRC450-485-peg4-chol] | – | 123 ± 10.5 | 123 ± 10.5 |
| CCN1C(=O)CC(SC[C@H](NC(=O)CNC(=O)[C@H](Cc2ccccc2)NC(=O)[C@@H](Cc2ccccc2)NC(=O)OCc2ccccc2)C(=O)O)C1=O (stereo partly drawn) [Monomer N-Maleimide FIP (no GSGSG)] (Cbz-[dF]FGC(Succinimide(1-Et,3-yl))-OH) | > 1000 | > 1000 | – |
| CC[C@H](C)[C@H](NC(=O)[C@H](C)NC(=O)[C@H](CC(N)=O)NC(=O)CNC(=O)[C@H](CC(C)C)NC(=O)[C@H](CC(N)=O)NC(=O)[C@@H](NC(=O)CNC(=O)[C@@H](NC(=O)[C@H](CC(=O)O)NC(=O)[C@H](CC(C)C)NC(=O)[C@H](CCCNC(=N)N)NC(=O)[C@H](CCC(=O)O)NC(=O)[C@H](CC(C)C)NC(=O)[C@H](CO)NC(=O)[C@@H](NC(=O)[C@@H]1CCCN1C(=O)[C@@H]1CCCN1C(=O)CNC(=O)[C@H](CO)NC(=O)CNC(=O)[C@H](CO)NC(=O)CNC(=O)CNC(=O)[C@H](Cc1ccccc1)NC(=O)[C@@H](Cc1ccccc1)NC(=O)OCc1ccccc1)[C@@H](C)CC)C(C)C)[C@@H](C)O)C(=O)N[C@@H](C)C(=O)N[C@@H](CCCCN)C(=O)N[C@@H](CC(C)C)C(=O)N[C@@H](CCC(=O)O)C(=O)N[C@@H](CC(=O)O)C(=O)N[C@@H](C)C(=O)N[C@@H](CCCCN)C(=O)N[C@@H](CCC(=O)O)C(=O)N[C@@H](CC(C)C)C(=O)N[C@@H](CC(C)C)C(=O)N[C@@H](CCC(=O)O)C(=O)N[C@@H](CO)C(=O)N[C@@H](CO)C(=O)N[C@@H](CC(=O)O)C(=O)N[C@@H](CCC(N)=O)C(=O)N[C@H](C(=O)N[C@@H](CC(C)C)C(=O)N[C@@H](CCCNC(=N)N)C(=O)N[C@@H](CSC1CC(=O)N(CCC(=O)NCCOCCOCCOCCOCCOCCOCCOCCOCCOCCOCCOCCNC(=O)CCN2C(=O)CC(SC[C@H](NC(=O)[C@H](CCCNC(=N)N)NC(=O)[C@H](CC(C)C)NC(=O)[C@@H](NC(=O)[C@H](CCC(N)=O)NC(=O)[C@H](CC(=O)O)NC(=O)[C@H](CO)NC(=O)[C@H](CO)NC(=O)[C@H](CCC(=O)O)NC(=O)[C@H](CC(C)C)NC(=O)[C@H](CC(C)C)NC(=O)[C@H](CCC(=O)O)NC(=O)[C@H](CCCCN)NC(=O)[C@H](C)NC(=O)[C@H](CC(=O)O)NC(=O)[C@H](CCC(=O)O)NC(=O)[C@H](CC(C)C)NC(=O)[C@H](CCCCN)NC(=O)[C@H](C)NC(=O)[C@@H](NC(=O)[C@H](C)NC(=O)[C@H](CC(N)=O)NC(=O)CNC(=O)[C@H](CC(C)C)NC(=O)[C@H](CC(N)=O)NC(=O)[C@@H](NC(=O)CNC(=O)[C@@H](NC(=O)[C@H](CC(=O)O)NC(=O)[C@H](CC(C)C)NC(=O)[C@H](CCCNC(=N)N)NC(=O)[C@H](CCC(=O)O)NC(=O)[C@H](CC(C)C)NC(=O)[C@H](CO)NC(=O)[C@@H](NC(=O)[C@@H]3CCCN3C(=O)[C@@H]3CCCN3C(=O)CNC(=O)[C@H](CO)NC(=O)CNC(=O)[C@H](CO)NC(=O)CNC(=O)CNC(=O)[C@H](Cc3ccccc3)NC(=O)[C@@H](Cc3ccccc3)NC(=O)OCc3ccccc3)[C@@H](C)CC)C(C)C)[C@@H](C)O)[C@@H](C)CC)[C@@H](C)CC)C(=O)O)C2=O)C1=O)C(=O)O)[C@@H](C)CC (stereo partly drawn) [[FIP-HRC450-485]2-peg11 (no GSGSG)] | 517 ± 105 | > 700 | – |
| CC(C)CCC[C@@H](C)[C@H]1CC[C@H]2[C@@H]3CC=C4C[C@@H](OC(=O)CCOCCOCCOCCOCCOCCOCCOCCOCCOCCOCCOCCOCCOCCOCCOCCOCCOCCOCCOCCOCCOCCOCCOCCOCCNC(=O)CSC[C@H](NC(=O)CNC(=O)[C@H](Cc5ccccc5)NC(=O)[C@@H](Cc5ccccc5)NC(=O)OCc5ccccc5)C(=O)O)CC[C@]4(C)[C@H]3CC[C@]12C [peg24 chol [FIP] (no GSGSG)] | 89.5 ± 46.3 | 114 ± 34.4 | – |
